Laboratory results reported in the supplement of paper PMC11417369.
± gives the standard deviation of the averaged measurements. The list shows a part of the results.

tested on: PfAP2-EXP AP2 domain (GST-tagged); assay: gcPBM binding intensity (ln(normalized median fluorescence intensity)); higher = stronger DNA binding
Outline: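 Each value is the highest Masliner-normalised natural-log median intensity across replicate spots of either orientation of a probe. The probes were primer-extended double-stranded 36-bp intergenic genomic sequences on an Agilent 4 × 180k array, alongside negative controls, exposed for 1 h to GST-tagged P. falciparum DNA-binding domains expressed in E. coli. Bound protein was picked up with Alexa488 anti-GST antibody and scanned at 488 nm.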

Sequence | gcPBM binding intensity (ln)
AATATATTTATATAGTGTACATTTTTTATATATGTA [XGTACX_site8142] | 8.47 ± 0.34
TATTAATTTTTATTATGTACATAAATAATTTATATT [XGTACX_site5456] | 8.39 ± 0.28
AATATATATATACATACATGCATACATATATATATA [TGCATGCA_site784] | 9.8 ± 0.14
ATAATATATTATTATAGTACTTTATTTTATTTTATG [XGTACX_site2387] | 8.67 ± 0.38
GGATAGATCATTTACACACACAAAAAAAAAAAAAAA [CACACA_site2139] | 8.19 ± 0.52
TAAGGAAAAAGAAAAAGTACATTATATAATAAATAG [XGTACX_site3282] | 8.71 ± 0.46
AAAAAAAATAAAATGAATAAATAAGAATTACATATT [CACACA_negctrl_site863] | 8.25 ± 0.41
CAAATATATGTTTTCACACACAAAAGAAATGAAACC [CACACA_site2162] | 8.67 ± 0.34
AAAAAGAAGATATATACACACCAAAAAAAAAAAAAA [CACACA_site7471] | 8.26 ± 0.45
TAAAATAAAACAAACACACACACACCCCCACAAAAA [CACACA_site3850] | 9.97 ± 0.26
TATTTACATGTAAAAGGTACACACATTATATATACA [XGTACX_site2157] | 8.75 ± 0.38
TTTATTATTTTTTGTAGTACTTTATATAAAAGTTCT [XGTACX_site4494] | 8.79 ± 0.28
ATACACTTTTATATATCAATACATTATGTATTAAGT [CACACA_negctrl_site421] | 8.81 ± 0.42
CCTCTTTATTTTAATTGTACATTTTTGTAGGTTTTT [XGTACX_site7130] | 8.82 ± 0.45
TCCTTTTTTTTGTAATGTACTTAGTTTGGTTATATG [XGTACX_site8208] | 8.85 ± 0.49
AAAACAAACCCATTTACACACATAAATAAATCAATT [CACACA_site6126] | 8.46 ± 0.62
ATGTATATATATATATGTACTAATTAGTAATTTACG [XGTACX_site6276] | 8.78 ± 0.36
TGAATGTAAGAAAATACACACTAGTATAGTAACACC [CACACA_site5131] | 8.96 ± 0.42
TTTTTATTACTTCTCTGTACTCAGGAAAATAAATAT [XGTACX_site2092] | 8.46 ± 0.38

Sequence | gcPBM binding intensity (ln)
TTGATTATAATTAGTACACACAAAATACATGCGGGG [CACACA_site2277] | 9.49 ± 0.35
AAATATATAATACATATGTAATATGCATATATATAT [GTGCAC_negctrl_site450] | 9.72 ± 0.16
AAGTATAACCTTTATAATAATGACATGACCGATTTT [CACACA_negctrl_site395] | 8.26 ± 0.34
AAGCATATTATAAACACACACTGTATAAAGATATAT [CACACA_site6277] | 8.6 ± 0.42
ATAATACGAATTTGTAGTACATTTATAATAACATGA [XGTACX_site2614] | 8.37 ± 0.17
TATAACCGAATGTGTACACAAAATAATGTTATATAT [CACACA_site5627] | 8.96 ± 0.25
ATATAACGAATAATTACACACTATAAAAAAAGATCT [CACACA_site2862] | 8.6 ± 0.45
TAAAAAACTTCGTGTTCACACATGTACTATATTATT [CACACA_site4796] | 8.44 ± 0.36
ACCCATAAGATAATTACACACAATACATCCCTATAT [CACACA_site5262] | 8.71 ± 0.65
TTTTTTTTTTTTTGTTGTACATTAAATATATTATTA [XGTACX_site7254] | 8.54 ± 0.52
TTATTATATTCTCCTTCACACACAAAAATATTTCAT [CACACA_site8738] | 8.77 ± 0.45
TGAAAAATTACAAAAATAATAAAATGAAATAATAAA [GTGCAC_negctrl_site53] | 8.46 ± 0.28
TAAAAGTTATAAGAGTGTACGTATATTTATATATCA [XGTACX_site2972] | 8.53 ± 0.24
TGGAAAAATAGGCACACACACATATATACATATATA [CACACA_site1297] | 8.61 ± 0.58
TTTTAATAACCAATCCGTACATATAATCTTTATATT [XGTACX_site536] | 8.48 ± 0.25
AGGACTAATATTTGAACACACATATAACATATACAT [CACACA_site7803] | 8.54 ± 0.46
AACTATAAATATAAATGTACACATATGTAATATATA [XGTACX_site6085] | 8.48 ± 0.31
CTTTTAAATTATTTTTGTACATAATTATATATATAT [XGTACX_site4128] | 9.4 ± 0.32
AAAAGGAAAATTTTCTTAGTAACTGCATTAAGAGAT [GTGCAC_negctrl_site675] | 8.89 ± 0.3

Sequence | gcPBM binding intensity (ln)
TACTGTTTAAAATATAAACACACATTGTTTGCTTTA [CACACA_site8358] | 8.51 ± 0.37
TTTTTTGTTATATTTGTGCGCAAAAATTGCTGCTTG | 8.88 ± 0.52
CATAATATATTTTATGCATGCAAAGCAACCTTTTGA [TGCATGCA_site715] | 9.59 ± 0.38
TATTAACAAAATTTTTAACACACAAAAAAAAAAAAA [CACACA_site8542] | 8.28 ± 0.54
ATTATATATATATATAAACACACATAAATATAAATA [CACACA_site8291] | 8.56 ± 0.38
TATTTATTTAAAGGCACACATATTTTTATACTTTCT [CACACA_site3163] | 8.48 ± 0.32
AAAATTTATGTAAAATGTACATACATAAATAAAGAT [XGTACX_site4339] | 9.06 ± 0.45
TTTGTAAAATAATATCTTTCATGTCCTTACTAATTA [GTGCAC_negctrl_site145] | 8.26 ± 0.52
TAAGGAAAAAATTATAGTACATAATAAATGTATATA [XGTACX_site8328] | 8.29 ± 0.31
ATAAATATATTTCACGCACACACACCCCAAATAAAT [CACACA_site9272] | 9.22 ± 0.64
AAAAAAGAAAAGAAATCATGAAAGAATCAAATAAAG [CACACA_negctrl_site1771] | 8.62 ± 0.53
CAAATTTTTTATTAAACACACAAACATATATTTATA [CACACA_site6992] | 8.18 ± 0.41
TTTTTATATATATTCTCACACACTTTTTATTTTAAC [CACACA_site657] | 8.7 ± 0.46
TGTTTTTTATTTAATTGTACGAATTAAAAAAAATAA [XGTACX_site3009] | 8.42 ± 0.41
AATATTCATATGCAGGTGCATTAATTTTTATTAATT | 8.78 ± 0.23
TTCCAACCATAGTATTCACACATTGTTTTATTCCAT [CACACA_site4927] | 8.83 ± 0.41
TTTTTACTAATAAGATGTACATATATCCTAAGCATA [XGTACX_site251] | 8.44 ± 0.35
TTTCGTAAACAAATTTGTACGTACAAATTTATAAAT [XGTACX_site8175] | 8.96 ± 0.28
ATAATATAATAAACGTGTACACAATTAAATTATTAT [XGTACX_site3491] | 8.68 ± 0.26
